# Laboratory results: paper PMC12136788
# Some of the results follow.
# T1: UNK ZnF1-3 (human, UniProt Q9C0B0 31-174)
# T1 sequence: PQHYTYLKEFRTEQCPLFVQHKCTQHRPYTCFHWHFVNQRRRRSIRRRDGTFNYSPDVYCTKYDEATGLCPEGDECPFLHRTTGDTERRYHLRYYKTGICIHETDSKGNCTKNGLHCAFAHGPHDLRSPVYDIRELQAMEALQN
# B1: chr3:98518469:98518470:-_ENSG00000057019_ENST00000326840|hu_mus|FALSE|FALSE (ssRNA)
# RNA: GGGAGUUCUACAGUCCGACGAUCAGCGUGAGGCUGGGUCCCUGCAGUUUUGAAGGUGGAUGUGGAGGGCAGACCAACUGAGGCUGUGGGGUGCCCUGACAUGUCCAUGACGAUCGGGGUUGCGUACUCAGGCCCCGUUACGGGCAACAGAGGAUUGAGCAUCA
# B2: chr3:15292738:15292739:+_ENSG00000131375_ENST00000253693|hu_hu|motif|central (ssRNA)
# RNA: GGGAGUUCUACAGUCCGACGAUCAGCCAGUAACUUGAGAUUUCUCCAUCACUGAAGUUGUGUGAUCUUGAUGGGGAUAAUACGGUUAAAGUCCAAGAAAAAAGGUCCUUCUUGUUUAGGCAAAAAGGUACUAGGAAUGAUAUUCAACAGAGGAUUGAGCAUCA
# B3: chr1:112309342:112309343:+_ENSG00000064703_ENST00000369702|hu_hu|motif|central (ssRNA)
# RNA: GGGAGUUCUACAGUCCGACGAUCUCUCCAGUACUCCUCAUAAUCCUGAUAGGUAUCAGAAAAACUCAGACGUAUUUCCCGGUGACAGUCAUACCAAUCAUCUUCCUGGGCUUCAGUCUGCAAUCUGAAGGAAGACCGCCUGGGCAACAGAGGAUUGAGCAUCA
# B4: 38431194_38431314_596_CDS_ENSMUSG00000037458_ENSMUST00000065308|mouse|control|control (ssRNA)
# RNA: GGGAGUUCUACAGUCCGACGAUCUCCAAGGUUUGUUCCUUCAUCCAACAGGCCAACGGAGUAGUUCGCAUCGUCAAUAAAUCCUUUCAUCUCAGCCGUAUUCCACAAAGCCGAAAGUCAUAAACCAGGAAAAACAAGAGACGGCAACAGAGGAUUGAGCAUCA
# B5: 38884973_38885093_2851_3pUTR_ENSG00000157540_ENST00000338785|human|control|control (ssRNA)
# RNA: GGGAGUUCUACAGUCCGACGAUCGAUGUGGCAAGUUAAAAUGGGGGAGCAAAAAGAGGAUACCUCUGAGCUAUCCAUGAAGAUGGGUUUGGACAUGGCUCUUUUAAACACUUCAAUGUCCCUUUGCAAUCUUUUCAAGUUAAACAACAGAGGAUUGAGCAUCA
# B6: 70736725_70739375_2123_CDS_ENSMUSG00000020817_ENSMUST00000076270|mouse|control|control (ssRNA)
# RNA: GGGAGUUCUACAGUCCGACGAUCUAAUGACACAUGCAAGCUGUGCUUCCCCUGGAGGCUGUCGUUGUCUUUCUGUAACCUCACCAACUCUUCUGAAACCUGUUCACGUGACUGCAUCAGCACCGCCAUCUGCUCCUGAACGUCCAACAGAGGAUUGAGCAUCA
# B7: 34074026_34074146_308_3pUTR_ENSG00000135387_ENST00000341394|human|control|control (ssRNA)
# RNA: GGGAGUUCUACAGUCCGACGAUCACCCCGAGAAUCUGCUUCAUGGCCUCGGUCUGGACAGCGCCGGUGCCGGUUGCGGGGUGCUGAGAAGCCGGCGCGGCGGCCCCGGCUCCCGCGGCCGCCUCACUCCCGGAGGAACCCGACCAACAGAGGAUUGAGCAUCA
# B8: 115657009_115659798_1181_3pUTR_ENSMUSG00000054414_ENSMUST00000067485|mouse|control|control (ssRNA)
# RNA: GGGAGUUCUACAGUCCGACGAUCGCGUCAGCAUCAGGGGCUACCACGAGCUUCAAGGUUCCCACGUAAACAUCAGAACAGAGUGUCCAGAAGUGCUGUUCUUGCAAGUUGUAAACUCCUUGUAACUGUUGCACCCUCUGAUAGCAACAGAGGAUUGAGCAUCA
# B9: chr1:46159212:46159213:+_ENSG00000159596_ENST00000372025|hu_mus|hu_hu_hu_mus_True|88_88 (ssRNA)
# RNA: GGGAGUUCUACAGUCCGACGAUCUCUGAUCCCUCCCAAGAAAGCUAGGAAACUGGCUCCAUAAGCCAUCUGAGUGAAAGCUAGGACGGGGAUAUAAGACUUUGUUAUUACCAUGAGAAGUGGGGGAGCAGUAAAGGGGAUUAACAACAGAGGAUUGAGCAUCA
# B10: chr1:39494447:39494448:+_ENSG00000168653_ENST00000372967|hu_mus|hu_hu_hu_mus_False|18_48 (ssRNA)
# RNA: GGGAGUUCUACAGUCCGACGAUCGCACCGAGCGGCGUUCUUAUAGGGCUGUUCUGCGCUUAGGAACAUAAAGUGCCGGUCCAGGCUAAGGCCGAACUUUUUCUGUAUGUCAAGGAAAGGCAUGGCCCUGCAGUGCCCUUGUCACAACAGAGGAUUGAGCAUCA
# B11: chr11:75113396:75113397:+_ENSG00000149273_ENST00000524851|hu_hu|FALSE|FALSE (ssRNA)
# RNA: GGGAGUUCUACAGUCCGACGAUCCCCUCCUAGGAGUUUGUAACGCAGAGACUCUGCCUGGGCAAUGGCACACAGACCUCUAGUGGCCACCUUUUCAGCAUAAAGCUCUACACUGCCCUCUGGAAAGCCAAACCUCUUCUGAACCAACAGAGGAUUGAGCAUCA
# B12: chr1:58468927:58468928:-_ENSMUSG00000026034_ENSMUST00000148330|mus_mus|mus_mus_mus_hu_False|58_58 (ssRNA)
# RNA: GGGAGUUCUACAGUCCGACGAUCAAUUACUGAAAAAGAUGUUCAUUACCUUAGCUAUGUACUUAAUGAACCAAAUUAUCUAAAAAAAAUAAACAUGGCAAUAUAAAAAUGUUAAGAAUUUACAAAGCUGUACAAAAUAACUUACAACAGAGGAUUGAGCAUCA
# B13: chr1:220276048:220276049:+_ENSG00000067704_ENST00000302637|hu_hu|hu_hu_hu_mus_True|8_88 (ssRNA)
# RNA: GGGAGUUCUACAGUCCGACGAUCGCAAAUUGCCUGGUUGGCGGGAAUCGUCCAAGGCUGGGUGGUCCAAACUAAAACGCUAACAGGGGAUGAGGCAUCUGUAAGAGACUCCAACUUCGGAGGAGGUUUUAAGAGAGGGAAUCUCAACAGAGGAUUGAGCAUCA
# B14: 123900948_123903029_810_CDS_ENSG00000119397_ENST00000373850|human|control|control (ssRNA)
# RNA: GGGAGUUCUACAGUCCGACGAUCUAGCUCAUCCACACGAGCUGCCACUUCUUCUGGACGAACCAAACCAUCAACCACAUGGUUAAGGUGAUUCUGGAAAUCUUUAAGUUGCUGUUUUAACAGAUUAUUGUCAUCCUGCAAGUGCAACAGAGGAUUGAGCAUCA
# B15: chr5:171327072:171327073:-_ENSG00000072803_ENST00000265094|hu_mus|FALSE|FALSE (ssRNA)
# RNA: GGGAGUUCUACAGUCCGACGAUCCACCAGCUCUGCUGCACACAGAGACCUGGCAUCCAGGUAGGAGAGAAUGUUUUCUGCUAUGUGAUCUAAGCCUUGCUCUGGUAAAGCAGUGAUAAAGUCCCGCUGCAACAUGGGCUUCAGCAACAGAGGAUUGAGCAUCA
# B16: chr11:13408652:13408653:+_ENSG00000133794_ENST00000403290|hu_hu|motif|central (ssRNA)
# RNA: GGGAGUUCUACAGUCCGACGAUCGACUUCUUUGUAGUGUAAAAACACCAUACAUCUGAAAUGACCAUUUGCAUAUAAAAGCGGCCAAUGAUGCUUCUGUGCACAAUGAUUAAAAAAUUCAACACAAACAGAAUCCAAAAUAUACAACAGAGGAUUGAGCAUCA
# B17: chr4:48381769:48381770:+_ENSG00000109171_ENST00000512093|hu_mus|motif|central (ssRNA)
# RNA: GGGAGUUCUACAGUCCGACGAUCCUUAUAGUUGGAUCCAAUUGAAUCUUCAUCUAAUUCUGAAGCACUUAACUCACGGUCGGUAGAGGACUGAGGGCUGAGUGGAGGGUUUCUAUCUGAUGAACUUUUGAAGUUACCUGAAUUCAACAGAGGAUUGAGCAUCA
# B18: chr11:118370577:118370578:+_ENSG00000118058_ENST00000534358|hu_hu|motif|central (ssRNA)
# RNA: GGGAGUUCUACAGUCCGACGAUCCUGAUAUCCAAUAGGAAAGAGCUUAUCUUCACAGUCGGAGAGAUCAUUUAGAAUUCCGGAGCAGUCGAUUGUCAUAGACCCAAUCAUCAUGUGGAUAUUUUCUGGUUCCAAGCCAUUGAGCAACAGAGGAUUGAGCAUCA
# B19: chr11:30433043:30433044:-_ENSG00000066382_ENST00000358117|hu_mus|FALSE|FALSE (ssRNA)
# RNA: GGGAGUUCUACAGUCCGACGAUCUCACAUUCCAACGGGAUGCUGAGUGCUUUAGGAGCCCUGUGGGUUUGGAAGGUCAAAUAUGAUUGGAGGGUUGGUCGGUUGAAAGCUGACUGUACAGGUUGAGGCAUUGAUGUAGGUGGUCAACAGAGGAUUGAGCAUCA
# B20: chr2:78753848:78753849:+_ENSMUSG00000027011_ENSMUST00000028398|mus_hu|FALSE|FALSE (ssRNA)
# RNA: GGGAGUUCUACAGUCCGACGAUCGUUAUCUCCUUUAGGCCCAGCACUGCAAUUAGGAGGAGGAUCAAGGGUUAUUUCAGCUAGCUCCUUCUGAAUUCUUUUAGCACUAGUGGAUAACUUAGCAGUGGUUUUGCUAGAGAGUUUCAACAGAGGAUUGAGCAUCA
# B21: chr8:124405102:124405103:-_ENSMUSG00000040010_ENSMUST00000045557|mus_hu|FALSE|FALSE (ssRNA)
# RNA: GGGAGUUCUACAGUCCGACGAUCUUUCUUUAAAAAUAAAAACCCCACAAAAAAGCCAGAACACCCUACCCAACCCAGCCCAGUGUAACAGGUUAGCCAUUAACACAGAAUAAAGAAGGUCCCAGCCACACACGUCAUUACUCGCAACAGAGGAUUGAGCAUCA
# B22: 34498214_34498334_89_5pUTR_ENSMUSG00000028291_ENSMUST00000084299|mouse|control|control (ssRNA)
# RNA: GGGAGUUCUACAGUCCGACGAUCUCGAAAUCCAGAGUCCUUUUCAGAGUGGCUCCGCACGCCAUGGUGGCGGGCGGCCGAGGCUCGGCUCGGGCGGGGCCGGGAAGGACGGGGGCAAACGGGCCCUCCGAGGUGCCCGGUGGGCAACAGAGGAUUGAGCAUCA
# Target: T1, UNK ZnF1-3
# Assay: nsRBNS (natural sequence RNA bind-n-seq); RBNS binding buffer (assumed for nsRBNS): 25 mM Tris pH 7.5, 150 mM KCl, 3 mM MgCl2, 0.01% Triton X-100, 500 ug/ml BSA, 20 U/ml SUPERase-In, 4 C; UNK is unkempt and MSI1 is Musashi-1; names of the RNAs are library labels; protein concentration not given here; high values mean tight binding
row,Binder,binding signal
1,B1,1.41 enrichment R
2,B2,0.763 enrichment R
3,B3,0.826 enrichment R
4,B4,1.46 enrichment R
5,B5,1.74 enrichment R
6,B6,0.793 enrichment R
7,B7,1.16 enrichment R
8,B8,0.941 enrichment R
9,B9,1.7 enrichment R
10,B10,0.748 enrichment R
11,B11,0.969 enrichment R
12,B12,1.83 enrichment R
13,B13,2.3 enrichment R
14,B14,0.671 enrichment R
15,B15,1.12 enrichment R
16,B16,0.771 enrichment R
17,B17,0.921 enrichment R
18,B18,1.96 enrichment R
19,B19,1.43 enrichment R
20,B20,0.926 enrichment R
21,B21,1.41 enrichment R
22,B22,0.847 enrichment R
